This note sets out measurements from a collection of fitness landscapes (doi:10.1126/science.1257360).

Some of the results follow.

B1: PhoQ; a variant is named by its letters at X, in order, P23837 (parent)
chain: MKKLLRLFFPLSLRVRFLLATAAVVLVLSLAYGMVALIGYSVSFDKTTFRLLRGESNLFYTLAKWENNKLHVELPENIDKQSPTMTLIYDENGQLLWAQRDVPWLMKMIQPDWLKSNGFHEIEADVNDTSLLLSGDHSIQQQLQEVREDDDDAEMTHSVAVNVYPATSRMPKLTIVVVDTIPVELKSSYMVWSWFIYVLSANLLLVIPLLWVAAWWSLRPIEALAKEVRELEEHNRELLNPATTRELTSLVRNLNRLLKSERERYDKYRTTLTDLTHSLKTPLXXLQXXLRSLRSEKMSVSDAEPVMLEQISRISQQIGYYLHRASMRGGTLLSRELHPVAPLLDNLTSALNKVYQRKGVNISLDISPEISFVGEQNDFVEVMGNVLDNACKYCLEFVEISARQTDEHLYIVVEDDGPGIPLSKREVIFDRGQRVDTLRPGQGVGLAVAREITEQYEGKIVAGESMLGGARMEVIFGRQHSAPKDE

The test covers variants of B1. Description: enrichment ratio after two sorts for PhoP signalling (ratio (wild type AVST 3.29)); higher = more functional. To be noted: with PhoP (E. coli).
With FDPH, the enrichment ratio was at most 0.25.

Turning to RTVH, the enrichment ratio is at most 0.25.

For the variant VPYT, the enrichment ratio is at most 0.25. For DDGF the value was at most 0.25. As to DNQP, the enrichment ratio is at most 0.25. In the case of GEDL, the enrichment ratio was at most 0.25.

For the variant RGSF, the enrichment ratio is at most 0.25. With ATCI the figure was 12.5. With EMCI the figure was at most 0.25. For KSCY the value was at most 0.25; for HQIE, at most 0.25; for HDVK, at most 0.25. QGWP: the enrichment ratio was at most 0.25. Turning to SNKC, the enrichment ratio was at most 0.25. For GIFH the value was at most 0.25; for EEPN, at most 0.25. With HDVP the figure was at most 0.25. For WIFM the value was at most 0.25.

On to THRC, for which the enrichment ratio was at most 0.25.

Regarding TCVN, the enrichment ratio is 2.66. For FLQL the value was at most 0.25; for GICF, 9.03.

For GNIG, the enrichment ratio turned out to be 1.98. Take WFMG: the enrichment ratio is at most 0.25.

With VMEP, the enrichment ratio was at most 0.25. Consider YVWG, for which the enrichment ratio is at most 0.25. Take ECSK: the enrichment ratio was at most 0.25. For TKYT the value was at most 0.25; for TQIG, at most 0.25. As for RHDY, the enrichment ratio was at most 0.25. For MPVC the value was at most 0.25; for RILF, at most 0.25; for SDIV, 9.06.

With IFKL, the enrichment ratio was at most 0.25. On to WGVG, for which the enrichment ratio was at most 0.25. With PIMA, the enrichment ratio is at most 0.25.

In the case of NFKG, the enrichment ratio was at most 0.25. For TRWR the value was at most 0.25; for NIDS, at most 0.25; for EGMM, at most 0.25. For the variant MQDN, the enrichment ratio was at most 0.25. Regarding WTAH, the enrichment ratio was at most 0.25. With LQVS the figure was at most 0.25; with FRTD, at most 0.25; with TRVN, at most 0.25. KNNC: the enrichment ratio was at most 0.25. For KNYD the value was at most 0.25; for IDFR, at most 0.25; for WPYC, at most 0.25. For NSAC the value was at most 0.25. With DAIG the figure was at most 0.25; with NMHG, 2.36.

RKVF: the enrichment ratio was at most 0.25. For GCCI, the enrichment ratio stood at 5.84. For RPQL, the enrichment ratio was at most 0.25.

On to TRWL, for which the enrichment ratio is at most 0.25. For YVYY the value was at most 0.25.

RWTK: the enrichment ratio was at most 0.25. Regarding YGQW, the enrichment ratio is at most 0.25. With GQNM the figure was at most 0.25; with YHQD, at most 0.25; with MFFS, at most 0.25. Turning to NGKD, the enrichment ratio is at most 0.25. With LATH the figure was at most 0.25. With HSFK the figure was at most 0.25; with FYLP, at most 0.25. Regarding RKPY, the enrichment ratio is at most 0.25. For WSMW the value was at most 0.25; for TYYD, at most 0.25.

GTDP: the enrichment ratio is at most 0.25. In the case of LTHR, the enrichment ratio is at most 0.25. For VHKE the value was at most 0.25. Turning to NHSG, the enrichment ratio is at most 0.25. As for YFYK, the enrichment ratio is at most 0.25. With IPEW the figure was at most 0.25.

With MQRI, the enrichment ratio was at most 0.25. VCPQ: the enrichment ratio is at most 0.25. Turning to MDNW, the enrichment ratio was at most 0.25.

For the variant DLVV, the enrichment ratio is at most 0.25. With IGWW the figure was at most 0.25. In the case of YPGD, the enrichment ratio is at most 0.25. For SIWF the value was at most 0.25; for NMVI, at most 0.25; for YDPK, at most 0.25. For GRKC, the enrichment ratio was at most 0.25.

Consider TVKK, for which the enrichment ratio was at most 0.25.

For the variant SFRE, the enrichment ratio was at most 0.25. With DVVF the figure was at most 0.25.

Take TSHF: the enrichment ratio was 13.4. On to EHNQ, for which the enrichment ratio is at most 0.25.

On to VQDH, for which the enrichment ratio is at most 0.25. With TVIT the figure was at most 0.25; with IEQH, at most 0.25. With VNGI, the enrichment ratio was at most 0.25. With FSFL the figure was 1.26. On to SIYW, for which the enrichment ratio was at most 0.25. With RTIT the figure was at most 0.25; with VGVH, at most 0.25; with FLII, at most 0.25. For RPGY the value was at most 0.25.

For GQKA, the enrichment ratio is at most 0.25. For WFPL the value was at most 0.25; for LTRM, at most 0.25; for ETCC, at most 0.25. With DNRY, the enrichment ratio was at most 0.25. With SWTS the figure was at most 0.25; with GEPF, at most 0.25. For NNDC the value was at most 0.25; for NVVI, at most 0.25. In the case of HVPI, the enrichment ratio is at most 0.25.

For VCDK, the enrichment ratio was at most 0.25. For the variant FSCL, the enrichment ratio stood at 8.2. For QEMF the value was at most 0.25. For LIAN the value was at most 0.25; for MKHF, at most 0.25; for HPNT, at most 0.25. For ELTR the value was at most 0.25; for RRSI, at most 0.25; for EVPP, at most 0.25. Take WEWD: the enrichment ratio was at most 0.25. Consider DPKM, for which the enrichment ratio is at most 0.25. With MPRE the figure was at most 0.25; with WKWI, at most 0.25; with FNKQ, at most 0.25. For FDMI the value was at most 0.25.

As to KDLL, the enrichment ratio is at most 0.25.

MVHY: the enrichment ratio is at most 0.25.

For the variant SCDQ, the enrichment ratio is at most 0.25. For IGYR the value was at most 0.25; for YNEL, at most 0.25.

As for RCMC, the enrichment ratio is at most 0.25.

As to ETAC, the enrichment ratio is at most 0.25. With VMAW the figure was at most 0.25; with FNCC, at most 0.25; with YIKK, at most 0.25. Take DRGW: the enrichment ratio is at most 0.25. With LASQ the figure was at most 0.25. YEKK: the enrichment ratio is at most 0.25. As to WHLM, the enrichment ratio is at most 0.25. In the case of TCFH, the enrichment ratio is at most 0.25. For GMCH the value was 16.1; for FCKG, at most 0.25. For MRKL the value was at most 0.25; for MEME, at most 0.25. Consider VIQV, for which the enrichment ratio was at most 0.25. With SHPS the figure was at most 0.25; with FERA, at most 0.25; with SRMT, 0.372.

Turning to HWKI, the enrichment ratio was at most 0.25. As to QTGR, the enrichment ratio is at most 0.25. For MYFY the value was at most 0.25. With LSCW the figure was at most 0.25; with VACI, at most 0.25.
